In ChEMBL document CHEMBL4888484, “Replenishing the malaria drug discovery pipeline: Screening and hit evaluation of the MMV Hit Generation Library 1 (HGL1) against asexual blood stage Plasmodium falciparum ,using a nano luciferase reporter read-out” (2022):
The campaign covered roughly 150,000 compounds. About 540 (0.36%) showed an effect of 50% or more. This is one part of the list.

system: Plasmodium falciparum; test: Primary screen in NF54 nanoGlo assay, in single point, at 2uM, 72h; a lower Z score goes with more inhibition; format: functional, Erythrocyte; conditions: timepoint 72 hour

SMILES | % Inhibition [%] | Z score
CCC(COC)NCC(O)c1ccccc1C (stereo not given) | -4 | 0.38
Cc1cc(C(=O)N2CC3(CCCCC3)C2)no1 | -2 | 0.14
Cn1cncc1C(=O)N1CCCC(O)C1CCc1ccccc1 (stereo not given) | -28 | 2.99
O=C(c1cscn1)N1CC2CCC(O)C2C1 (stereo not given) | 1 | -0.15
CC(C)C1(CNC(=O)C[C@H](c2ccccc2)c2ncc[nH]2)CC1 | 5 | -0.81
O=C(OCc1cn2ccccc2n1)c1cccnc1Nc1ccccc1F | -6 | 0.62
CC(C)(C)n1ncnc1CN1CCCC[C@@]1(C)C(N)=O | -5 | 0.6
CC(C)c1nccc(-c2c(-c3ccccc3)ncn2Cc2ccco2)n1 | -9 | 1.19
Cc1cc(NC(=O)CCN(C)[C@@H](C)c2ccccc2F)no1 | 2 | -0.38
CC1(CO)CN(c2cc(C(C)(C)C)ccn2)C1 | 7 | -0.98
CCNc1nc(C(=O)N[C@@]2(C)CCOC2)cs1 | -9 | 0.92
CCC[C@H]1CN(Cc2cc3cc(C)ccc3[nH]c2=O)C[C@@H]1NS(C)(=O)=O | -11 | 1.05
CCOC(=O)C1CCN(Cc2nc(C(C)C)cc(N3CCC(C(=O)OCC)CC3)n2)CC1 | 13 | -1.26
CCN1C[C@H](Nc2cc(OC)nc(N)n2)[C@@H](OC)C1 | -3 | 0.5
CCCn1cc(S(=O)(=O)Nc2ccc(F)cc2C)c2cccnc21 | 1 | -0.18
CC[C@@H](C(=O)N1CCc2nc(NC)nc(C(=O)N3CCCC3)c2C1)n1cccn1 | -1 | 0.3
O=C(Cn1cnnn1)N1COCC[C@H]1c1ccccc1 | 11 | -1.4
CN(C(=O)c1cc(-c2ccncc2)on1)[C@@H](CO)C(C)(C)C | 1 | -0.18
Cc1cc(O)c(C(C)C)cc1NC(=O)CCN1CCCC1=O | -2 | 0.44
CN(CCc1ncnn1Cc1ccc2c(c1)OCO2)[C@H]1CCS(=O)(=O)C1 | -3 | 0.74
CCc1nnc(-c2c(C)c(S(=O)(=O)NCc3ccc(F)cc3Cl)c(C)n2CC)o1 | -13 | 1.66
CC1(C)CC(S(=O)(=O)NCCC2(O)CCCOC2)CO1 (stereo not given) | -5 | 0.94

SMILES | % Inhibition [%] | Z score
Clc1ccc(Cn2ccnc2-c2cc3n(n2)CCCNC3)cc1Cl | -1 | 0.07
COc1ccc2cc1OCC(=O)N[C@@H](C)C(=O)N(C)CCCCN(C(=O)c1ccc(C(C)C)n(C)c1=O)CCCNC(=O)CC2 | -6 | 1.18
CC1=Nc2ccc(C)cc2N(Cc2ccccc2)C(=O)C1 | -7 | 0.62
CC1(C)C(NCC(O)COc2ccc(F)c(F)c2)[C@@H]2CCC[C@@H]21 (stereo not given in full) | 61 | -6.95
O=C(c1ccnn1C(F)F)N1CCc2c(CN3CCCC3)cccc21 | 4 | -0.72
C[C@H]1CN(Cc2noc3c2COCC3)Cc2c[nH]nc21 | -5 | 0.65
COc1ccc(Br)c(C(=O)N2CC(c3nc(-c4cccc(Cl)c4)no3)C2)c1 | -16 | 2.99
O=C(NS(=O)(=O)CCC1CCCC1)[C@H]1CC1(F)F | -9 | 1.41
Cc1noc2nc3c(c(C(=O)N4C[C@H]5C[C@H](O)[C@H](O)C[C@H]5C4)c12)CCC3 | -11 | 1.02
Fc1ccc(N2CCN(c3c4c(nc5nncn35)CCC4)CC2)cc1 | -2 | 0.21
COc1c(F)cc([C@@H]2c3nc[nH]c3CCN2Cc2ccco2)cc1Cl | 0 | 0.01
COc1ccc2c(c1)C1(CC1)CN(C(=O)Nc1ccnnc1C)C2 | -11 | 2.25
COc1c[nH]c(C(=O)NCc2nc(CC(C)C)no2)cc1=O | -15 | 1.31
COC(=O)c1ccc(NC(=O)N[C@@H]2C[C@@H](CO)N(C)C2)cc1 | -7 | 0.68
CCC(=O)N1CCN(C(=O)c2sccc2Cl)[C@H]2CS(=O)(=O)C[C@H]21 | -2 | 0.19
CC1CCN(C(=O)c2oc3ccccc3c2NC(=O)C2CCCC2)CC1 | -7 | 0.72
c1ccc(-n2nnnc2C2(N3CCOCC3)CCCC2)cc1 | -20 | 2.89
COc1ncccc1CNC(=O)N(C)Cc1cc(C)on1 | -6 | 1.09
CCCN1CCN(C2CCN(C3CCN(S(=O)(=O)c4cccs4)CC3)CC2)CC1 | -17 | 1.68
O=C1NCCN2CC3(CCN(C(=O)CCCc4ccccc4)CC3)C[C@@H]12 | -13 | 2.43
O=C(c1ccc2[nH]nnc2c1)N1CCN2C(=O)OC[C@H]2C1 | -24 | 2.09
CC(=O)N1CCC[C@H]1C(=O)N(CCc1cccc(F)c1)C1CC1 | -10 | 1.35

SMILES | % Inhibition [%] | Z score
COCC1(C(=O)N[C@@H](C)c2nc(CC(C)C)no2)CCC1 | -3 | 0.64
CC[C@H](C)NC(=O)COC(=O)c1nccnc1N | -8 | 1.09
Cc1ccccc1N1C(=O)CN(C(=O)C2Cc3ccccc3O2)CC1C (stereo not given) | -3 | 0.6
CC(C)c1nc(CN2C[C@@H]3CC[C@H](C2)C(=O)N3)co1 | 11 | -1.33
CC(CNC1CC(C)(C)OC1(C)C)CS(C)(=O)=O (stereo not given) | -4 | 0.55
CC(C)CC1(C(=O)N[C@@H](C)CC(=O)O)CCC1 | -8 | 0.83
CCC(=O)Nc1ccc(CC)cc1-c1nc2ccccc2n(CC(=O)c2ccc(F)cc2)c1=O | -8 | 1.61
Cc1ccc(N(C)Cc2nncs2)c(F)c1 | -4 | 0.34
CCC(=O)N1CCCc2cc(S(=O)(=O)N3CCC(C(=O)Nc4ccc(F)c(F)c4)CC3)ccc21 | 6 | -0.71
CC(C)N(C)Cc1nnnn1CC(=O)NCCC1=CC[C@H]2C[C@@H]1C2(C)C | -4 | 0.54
c1ccc(COc2ccccc2OCCN2CCOCC2)cc1 | 2 | -0.35
O=C(CN1CCC(c2nnc3n2CCC3)CC1)N1CCCCC1 | -13 | 1.61
CCN1C(=O)COc2ccc(NC(=O)N[C@@H](C)c3ccc(C)nc3)cc21 | -1 | 0.21
CN(C)[C@@H]1C[C@@H](CO)N(C(=O)Nc2ccc(OC(F)(F)F)cc2)C1 | -1 | 0.26
COCCNc1ccccc1NC(=O)C1CCC(F)(F)CC1 | -8 | 1.53
CCc1c(C(=O)N2CCC3(CN(C)C3)C2)ccn1C | -9 | 1.69
CN1N=C(C(=O)N2CC[C@@]3(CCCN(CCc4ccccc4)C3)C2)CCC1=O | -6 | 0.82
CC(C)NC(=O)CNC(=O)Cc1ccccc1 | -44 | 5.13
CCn1cc(CN(C)C(=O)Nc2cc(C)nn2-c2ccc(OC)cc2)cn1 | -7 | 0.99
CN(C)c1cc(C(=O)OCc2nc3cc(C(F)(F)F)ccc3o2)ccn1 | 32 | -3.57
CC[C@](C)(O)CN(Cc1ccccc1)S(=O)(=O)C1CC1 | 7 | -1.08
O=C(Cn1cc(F)ccc1=O)N1CCc2ccccc21 | -8 | 1.07

SMILES | % Inhibition [%] | Z score
COc1ccc(-c2nnc(C)o2)cc1NC(=O)[C@H]1CCOC1 | -4 | 0.54
Cc1c(C[C@@H]2C(=O)N(C)c3ccccc32)oc2ccc(F)cc12 | -13 | 1.16
CC1CCCC(C)N1C(=O)N(C)CC(C)(CO)CO (stereo not given) | -3 | 0.36
O=C1N[C@@](c2ccccc2)(C(F)(F)F)C(=O)N1CC=Cc1ccccc1 | -6 | 0.86
COCCN1C[C@@H](Cc2ccc(N3CCOCC3)cc2)CC1=O | -1 | 0.12
Cc1ccc2c(c1F)N(C(=O)c1ccc(=O)n(C)n1)CCC2 | -9 | 1.34
CC(C)NC(=O)N1CCN(c2ccc(Cl)c(NC(=O)CN(C(=O)c3ccccc3Cl)C(C)C)c2)CC1 | -13 | 1.19
COCCOc1cc(=O)n2c(c1C(=O)NCc1ccccc1)CCOCC2 | -15 | 1.47
COc1c(C(=O)OCc2nc(C)cs2)c(C)nn1C | -10 | 1.55
Cc1cc(O)c([C@]2(C(F)(F)F)NCCNC2=O)cc1C | -8 | 1.03
O=C(NCc1cc(-c2cccs2)on1)C1CCCCC1 | -5 | 0.66
COc1cccc(C2CN(C(=O)NC(C)(C)C)CC2C(=O)N(C)Cc2ccccc2)c1 (stereo not given) | -18 | 2.18
CCc1ncnc(NCC2(n3cccn3)CC2)c1F | 2 | -0.35
Cc1nnc(CN(C)CCc2nc3ccccc3[nH]2)s1 | 0 | -0.03
Nc1cc(-c2cccc(OCc3ccccc3)c2)n[nH]1 | -25 | 2.98
CN(Cc1ccccc1)c1c(Cl)cnc(C(=O)O)c1Cl | 9 | -1.06
FC(F)Oc1ccc2c(c1)CCC[C@@H]2NC1CCOCC1 | -8 | 1.01
COc1ccc(CCN2C(=O)CNC23CCN(C(=O)C2CCC2)CC3)cc1OC | 3 | -0.49
CCOC(=O)c1cc(-c2ccccc2)n(-c2cccc(C(=O)NCCc3ccc(C)cc3)c2)c1C | 10 | -1.14
